For 24 compounds, IC50 results are on record in patent US11618753B2 (priority 2018, dated 2023).

The test system of this assay is MLKL phosphorylation, HT29-L23 human colorectal adenocarcinoma cells. The assay can be described thus: cells. Conditions: read-out: pMLKL HCS Cell Assay (IC50, uM).
On to `CC(CC(=O)N1C[C@H](F)[C@H](NC(=O)c2cc(-c3cc(C(F)(F)F)c4c(N)ncnn34)c(F)cc2Cl)C1)C(F)(F)F` (stereo partly drawn) [Example 883, 5-[4-amino-5-(trifluoromethyl)pyrrolo[2,1-f][1,2,4]triazin-7-yl]-2-chloro-4-fluoro-N-[(3R,4S)-4-fluoro-1-(4,4,4-trifluoro-3-methylbutanoyl)pyrrolidin-3-yl]benzamide], for which the IC50 worked out at 0.0052 µM.
For the compound `COc1ncc(-c2cc(C(F)(F)F)c3c(N)ncnn23)cc1C(=O)N[C@@H]1CN(C(C)(C)C(C)(C)O)C[C@@H]1F` [Example 1405, 5-(4-Amino-5-(trifluoromethyl)pyrrolo[2,1-f][1,2,4]triazin-7-yl)-N-((3R,4S)-4-fluoro-1-(3-hydroxy-2,3-dimethylbutan-2-yl)pyrrolidin-3-yl)-2-methoxynicotinamide], the IC50 worked out at 0.038 µM.
With `Nc1ncnn2c(-c3ccc(OC(F)(F)F)c(C(=O)N[C@@H]4CN(C(=O)c5ccccc5F)C[C@@H]4F)c3)cc(C(F)(F)F)c12` [Example 1046, 5-[4-amino-5-(trifluoromethyl)pyrrolo[2,1-f][1,2,4]triazin-7-yl]-N-[(3R,4S)-4-fluoro-1-(2-fluorobenzoyl)pyrrolidin-3-yl]-2-(trifluoromethoxy)benzamide], the IC50 was found to be 0.223 µM.
With `Cc1ncc(-c2cc(C(F)(F)F)c3c(N)ncnn23)cc1C(=O)N[C@@H]1CN(C(=O)C2CC2(F)F)C[C@@H]1F` (single isomer, unassigned) [Example 354, 5-[4-amino-5-(trifluoromethyl)pyrrolo[2,1-f][1,2,4]triazin-7-yl]-N-[1-(2,2-difluorocyclopropane-carbonyl)-4-fluoropyrrolidin-3-yl]-2-methylpyridine-3-carboxamide], the IC50 was 0.265 µM.
For `COc1ncc(-c2cc(C(F)(F)F)c3c(N)ncnn23)cc1C(=O)N[C@@H]1CN(C(=O)CC(C)(C)O)C[C@@H]1F` [Example 317, 5-[4-amino-5-(trifluoromethyl)pyrrolo[2,1-f][1,2,4]triazin-7-yl]-N-[(3R,4S)-4-fluoro-1-(3-hydroxy-3-methylbutanoyl)pyrrolidin-3-yl]-2-methoxypyridine-3-carboxamide], the IC50 amounted to 0.328 µM.
For `COc1ncc(-c2cc(C(F)(F)F)c3c(N)ncnn23)cc1C(=O)N[C@@H]1CN(S(=O)(=O)Cc2cccc([N+](=O)[O-])c2)C[C@@H]1F` [Example 1495, 5-[4-amino-5-(trifluoromethyl)pyrrolo[2,1-f][1,2,4]triazin-7-yl]-N-[(3R,4S)-4-fluoro-1-[(3-nitrophenyl)methanesulfonyl]pyrrolidin-3-yl]-2-methoxypyridine-3-carboxamide], the IC50 was 0.238 µM.
`C[C@@](O)(C(=O)N1C[C@H](F)[C@H](NC(=O)c2cc(-c3cc(C(F)(F)F)c4c(N)ncnn34)c(F)cc2Cl)C1)C(F)(F)F` [Example 402, 5-[4-amino-5-(trifluoromethyl)pyrrolo[2,1-f][1,2,4]triazin-7-yl]-2-chloro-4-fluoro-N-[(3R,4S)-4-fluoro-1-[(2R)-3,3,3-trifluoro-2-hydroxy-2-methylpropanoyl]pyrrolidin-3-yl]benzamide]: the half-inhibitory concentration (IC50) was 0.0048 µM.
For `CCOCCOC(=O)N1C[C@H](F)[C@H](NC(=O)c2cc(-c3cc(C(F)(F)F)c4c(N)ncnn34)cnc2OC)C1` [Example 1432, 2-ethoxyethyl (3R,4S)-3-{5-[4-amino-5-(trifluoromethyl)pyrrolo[2,1-f][1,2,4]triazin-7-yl]-2-methoxypyridine-3-amido}-4-fluoropyrrolidine-1-carboxylate], the IC50 is 0.291 µM.
As to `COc1ncc(-c2cc(C(F)(F)F)c3c(N)ncnn23)cc1C(=O)N[C@@H]1CN(C(=O)C2(F)CCC2)C[C@@H]1F` [Example 330, 5-[4-amino-5-(trifluoromethyl)pyrrolo[2,1-f][1,2,4]triazin-7-yl]-N-[(3R,4S)-4-fluoro-1-(1-fluorocyclobutanecarbonyl)pyrrolidin-3-yl]-2-methoxypyridine-3-carboxamide], the IC50 was 0.0099 µM.
The result for `CC(CC(=O)N1C[C@H](F)[C@H](NC(=O)c2cc(-c3cc(CN4CCC(C(F)(F)F)CC4)c4c(N)ncnn34)ccc2Cl)C1)C(F)(F)F` (stereo partly drawn) [Example 1150, 5-(4-amino-5-{[4-(trifluoromethyl)piperidin-1-yl]methyl}pyrrolo[2,1-f][1,2,4]triazin-7-yl)-2-chloro-N-[(3R,4S)-4-fluoro-1-(4,4,4-trifluoro-3-methylbutanoyl)pyrrolidin-3-yl]benzamide] reads 0.0013 µM; that for `Cc1cc(F)c(-c2cc(C(F)(F)F)c3c(N)ncnn23)cc1C(=O)N[C@@H]1CN(C(=O)c2ccccn2)C[C@@H]1F` [Example 828, 5-[4-amino-5-(trifluoromethyl)pyrrolo[2,1-f][1,2,4]triazin-7-yl]-4-fluoro-N-[(3R,4S)-4-fluoro-1-(pyridine-2-carbonyl)pyrrolidin-3-yl]-2-methylbenzamide], 0.013 µM; that for `COc1ncc(-c2cc(C(F)(F)F)c3c(N)ncnn23)cc1C(=O)N[C@H]1CCC[C@@H](c2ccccc2)C1` (racemic) [Example 1693, 5-(4-amino-5-(trifluoromethyl)pyrrolo[2,1-f][1,2,4]triazin-7-yl)-2-methoxy-N-((1SR,3RS)-3-phenylcyclohexyl)nicotinamide], 0.004 µM.
Turning to `Cc1ccc(-c2cc(C(F)(F)F)c3c(N)ncnn23)cc1C(=O)N[C@@H]1CN(C(=O)CC2CC(F)(F)C2)C[C@@H]1F` [Example 1045, 5-[4-amino-5-(trifluoromethyl)pyrrolo[2,1-f][1,2,4]triazin-7-yl]-N-[(3R,4S)-1-[2-(3,3-difluorocyclobutyl)acetyl]-4-fluoropyrrolidin-3-yl]-2-methylbenzamide], the IC50 stood at 0.0042 µM.
For `Nc1ncnn2c(-c3ccc(F)c(C(=O)NCc4ccccc4Oc4ccccc4)c3)cc(C(F)(F)F)c12` [Example 244, 5-[4-amino-5-(trifluoromethyl)pyrrolo[2,1-f][1,2,4]triazin-7-yl]-2-fluoro-N-[(2-phenoxyphenyl)methyl]benzamide], the IC50 is 0.258 µM.
Consider `Nc1ncnn2c(-c3ccc(F)c(C(=O)N[C@@H]4CN(C(=O)C5CCC(F)(F)C5)C[C@@H]4F)c3F)cc(C(F)(F)F)c12` (stereo partly drawn) [Example 733, 3-[4-amino-5-(trifluoromethyl)pyrrolo[2,1-f][1,2,4]triazin-7-yl]-N-[(3R,4S)-1-(3,3-difluorocyclopentanecarbonyl)-4-fluoropyrrolidin-3-yl]-2,6-difluorobenzamide], for which the 50% inhibitory concentration (IC50) came out at 0.039 µM.
Consider `COc1ncc(-c2cc(C(F)(F)F)c3c(N)ncnn23)cc1C(=O)NC1CN(CC2CCCO2)CC1F` (racemic) [Example 195, 5-[4-amino-5-(trifluoromethyl)pyrrolo[2,1-f][1,2,4]triazin-7-yl]-N-{4-fluoro-1-[(oxolan-2-yl)methyl]pyrrolidin-3-yl}-2-methoxypyridine-3-carboxamide], for which the IC50 was determined as 0.349 µM.
As for `COc1ncc(-c2cc(CN3CC(F)(F)C3)c3c(N)ncnn23)cc1C(=O)N[C@@H]1CN(C(=O)[C@@H]2CC2(F)F)C[C@@H]1F` [Example 1557, 5-{4-amino-5-[(3,3-difluoroazetidin-1-yl)methyl]pyrrolo[2,1-f][1,2,4]triazin-7-yl}-N-[(3R,4S)-1-[(1S)-2,2-difluorocyclopropanecarbonyl]-4-fluoropyrrolidin-3-yl]-2-methoxypyridine-3-carboxamide], the IC50 is 0.018 µM.
For the compound `COc1ncc(-c2cc(C(F)(F)F)c3c(N)ncnn23)cc1C(=O)N[C@@H]1CN(C(C)c2ccncn2)C[C@@H]1F` (single isomer, unassigned) [Example 452], the IC50 was 0.101 µM.
Consider `COCCOC(=O)N1C[C@H](F)[C@H](NC(=O)c2cc(-c3cc(C(F)(F)F)c4c(N)ncnn34)cnc2OC)C1` [Example 1419, 2-methoxyethyl (3R,4S)-3-{5-[4-amino-5-(trifluoromethyl)pyrrolo[2,1-f][1,2,4]triazin-7-yl]-2-methoxypyridine-3-amido}-4-fluoropyrrolidine-1-carboxylate], for which the IC50 is 0.099 µM.
The result for `COc1ncc(-c2cc(C(F)(F)F)c3c(N)ncnn23)cc1C(=O)N1CCCC(O)(Cc2ccc(F)cc2)C1` (stereo not drawn) [Example 1741, (5-(4-amino-5-(trifluoromethyl)pyrrolo[2,1-f][1,2,4]triazin-7-yl)-2-methoxypyridin-3-yl)(3-(4-fluorobenzyl)-3-hydroxypiperidin-1-yl)methanone] reads 0.101 µM; that for `COc1ccc(-c2cc(C(F)(F)F)c3c(N)ncnn23)cc1C(=O)N[C@@H]1CN(C(=O)C(C)(C)F)C[C@@H]1F` [Example 1119, 5-[4-amino-5-(trifluoromethyl)pyrrolo[2,1-f][1,2,4]triazin-7-yl]-N-[(3R,4S)-4-fluoro-1-(2-fluoro-2-methylpropanoyl)pyrrolidin-3-yl]-2-methoxybenzamide], 0.035 µM; that for `COc1ncc(-c2cc(C(=O)N3CC(F)(F)C3)c3c(N)ncnn23)cc1C(=O)N[C@@H]1CN(C(=O)[C@@](C)(O)C(F)(F)F)C[C@@H]1F` [Example 1349, 5-[4-amino-5-(3,3-difluoroazetidine-1-carbonyl)pyrrolo[2,1-f][1,2,4]triazin-7-yl]-N-[(3R,4S)-4-fluoro-1-[(2R)-3,3,3-trifluoro-2-hydroxy-2-methylpropanoyl]pyrrolidin-3-yl]-2-methoxypyridine-3-carboxamide], 0.041 µM.
With `CCc1c(F)cc(-c2cc(C(F)(F)F)c3c(N)ncnn23)cc1C(=O)N[C@@H]1CN(C(=O)CC(C)C(F)(F)F)C[C@@H]1F` (stereo partly drawn) [Example 652, 5-[4-amino-5-(trifluoromethyl)pyrrolo[2,1-f][1,2,4]triazin-7-yl]-2-ethyl-3-fluoro-N-[(3R,4S)-4-fluoro-1-(4,4,4-trifluoro-3-methylbutanoyl)pyrrolidin-3-yl]benzamide] the figure was 0.0086 µM; with `COc1ncc(-c2cc(CN3CCC(F)(F)CC3)c3c(N)ncnn23)cc1C(=O)N[C@@H]1CN(C(=O)c2ccc(F)cn2)C[C@@H]1F` [Example 1264, 5-{4-amino-5-[(4,4-difluoropiperidin-1-yl)methyl]pyrrolo[2,1-f][1,2,4]triazin-7-yl}-N-[(3R,4S)-4-fluoro-1-(5-fluoropyridine-2-carbonyl)pyrrolidin-3-yl]-2-methoxypyridine-3-carboxamide], 0.0039 µM.

The term IC50 denotes the point on the concentration scale where inhibition reaches its midpoint.
